Experimental data from PubChem BioAssay AID485281 (National Center for Advancing Translational Sciences (NCATS), 2010).
Out of some 350,000 compounds screened, about 260 (0.074%) were called active. The shares of active, inactive and inconclusive entries below differ from those in the screen. Calls follow the shape of the dose curve; as a rule, active = well fitted inhibition curve with a large enough effect; inconclusive = small, poorly fitted or top-dose-only effect; inactive = no such curve, though single readings can be large or run the other way. Potencies of inconclusive entries are doubtful fits and often do not repeat.

biological target: Ferritin light chain (Equus caballus) (UniProt P02791); assay: qHTS Assay for Identification of Novel General Anesthetics; settings: apoferritin/1-aminoanthracene competitive binding, fluorescence; activity change, negative = displacement: at 77.5 µM (top of the series); also: nearly all actives have a fitted effect of over 20% in size
How it was run: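 In PBS, apoferritin at 10 uM is loaded with 1-AMA from a 50% saturated solution. After 10 min of compound exposure at ambient temperature, reduced 535 nm fluorescence indicates probe displacement.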
% is scaled to controls: 0 for no effect and ±100 for the full control effect; potency is read from the fitted curve at half-maximal effect; tags tell the direction and shape of the fitted curve.

UniProt P02791, sequence (P02791 whole entry, looked up): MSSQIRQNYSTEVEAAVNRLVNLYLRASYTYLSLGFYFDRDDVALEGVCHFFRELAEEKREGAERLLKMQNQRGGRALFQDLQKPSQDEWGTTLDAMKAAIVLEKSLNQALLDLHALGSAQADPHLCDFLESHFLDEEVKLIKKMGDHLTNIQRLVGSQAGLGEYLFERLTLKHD

| Structure (SMILES) | Potency | activity change, negative = displacement |
| --- | --- | --- |
| COc1ccc(Cl)cc1NC(=O)CSc1nc(-c2ccco2)cc(C(F)(F)F)n1 | inconclusive: 10 µM [inhibitor, partial curve] | – |
| CCc1ccccc1Nc1nc2ccccc2n2cnnc12 | inconclusive: 28.2 µM [inhibitor, single point] | – |
| Cc1ccc(NC(=S)Nc2ccc(C(C)C)cc2)cc1S(=O)(=O)N1CCCCCC1 | – | inactive: -16% |
| Cc1csc(SCC(=O)Nc2ccc(S(=O)(=O)N3CCCC3)cc2)n1 | inconclusive: 50.1 µM [inhibitor, partial curve, poor fit] | – |
| Cc1ccccc1N1CCN(c2ncnc3c2cnn3Cc2ccc(Cl)cc2)CC1 | – | inactive: 9.21% |
| CCCCSc1nc2sc3c(c2c(=O)n1-c1ccc(C)cc1)CCN(C)C3 | inconclusive: 50.1 µM [inhibitor, single point] | – |
| COc1ccccc1N1CCN(Cc2cc3c(cc2Br)OCCO3)CC1 | – | inactive: -8.1% |
| O=C(Nc1ccc(O)cc1)C1CC=CCC1 (centres undefined) | inconclusive: 35.5 µM [inhibitor, partial curve] | – |
| Cc1cc(C(=O)NC2CCCc3ccccc32)ccc1[N+](=O)[O-] (centres undefined) | inconclusive: 50.1 µM [inhibitor, single point] | – |
| Cc1ccccc1NCC(=O)N/N=C/c1c[nH]c2ccccc12 | inconclusive: 28.2 µM [inhibitor, partial curve] | – |
| NC(=O)c1ccc(C23CC4CC(CC(C4)C2)C3)o1 | inconclusive: 15.8 µM [inhibitor, partial curve] | – |
| O=C(Nc1ccccc1)/C(=C\c1cccs1)NC(=O)c1ccccc1 | – | inactive: -2.9% |
| O=S(=O)(NCc1cccs1)c1ccc(Br)s1 | inconclusive: 28.2 µM [inhibitor, partial curve] | – |
| O=C(COC(=O)c1n[nH]c2ccccc12)Nc1ccc(S(=O)(=O)N2CCCC2)cc1 | inconclusive: 17.8 µM [inhibitor, partial curve] | – |
| CN(C)c1ccc(CNC(=O)CCS(=O)(=O)c2ccc3c(c2)n(C)c(=O)c(=O)n3C)cc1 | inconclusive: 28.2 µM [inhibitor, partial curve] | – |
| Cc1ccc(-n2nc(CO)c(C(=O)NCCCc3ccccc3)n2)cc1 | inconclusive: 14.1 µM [inhibitor, partial curve] | – |
| COC(=O)CCCC1=CC2=C(c3ccccc3)C(=O)C(C)(OC(=O)C3CCCC3)C(=O)C2=CN1C1CC1 (centres undefined) | – | inactive: 2.28% |
| COc1ccc(Nc2nnc(SCC3CCCO3)s2)cc1 (centres undefined) | inconclusive: 28.2 µM [inhibitor, partial curve] | – |
| COc1ccc2c(C)nc(N/C(N)=N/S(=O)(=O)c3ccc(C)cc3)nc2c1 | inconclusive: 11.2 µM [inhibitor, partial curve] | – |
| COC(=O)c1cc2occc2n1Cc1cccc(C)c1 | inconclusive: 20 µM [inhibitor, partial curve] | – |
| CCn1nc(C)cc1C(=O)NC1CCCc2c1cnn2-c1ccc(C)c(C)c1 (centres undefined) | inconclusive: 50.1 µM [inhibitor, single point] | – |
| CCOC(=O)C(=O)Nc1cc(C)on1 | inconclusive: 89.1 µM [inhibitor, partial curve, poor fit] | – |

| Structure (SMILES) | Potency | activity change, negative = displacement |
| --- | --- | --- |
| C/C(=N\Nc1nc(C)cc(-c2ccccc2)n1)c1ccc(C)o1 | inconclusive: 31.6 µM [inhibitor, partial curve] | – |
| CC1CCN(c2c([N+](=O)[O-])nn(-c3ccc4c(c3)OCCO4)[n+]2[O-])CC1 | inconclusive: 44.7 µM [inhibitor, partial curve, poor fit] | – |
| CC(=O)Nc1ccc(NC(=O)CSc2ncnn2-c2ccccc2)cc1 | – | inactive: -11.1% |
| CC(C)(C)OC(=O)N1CCN(c2ccc(NC(=O)c3ccco3)cc2)CC1 | – | inactive: -3.36% |
| CN(C)S(=O)(=O)c1ccc(C(=O)NCc2nnc(SCC(=O)c3ccccc3)o2)cc1 | inconclusive: 44.7 µM [inhibitor, partial curve] | – |
| COc1ccccc1-c1cc(C(F)(F)F)nc(S(C)(=O)=O)n1 | – | inactive: -2.83% |
| O=C1CCC(c2ccccc2)=NN1 | – | inactive: -2.13% |
| O=C(c1ccccc1)c1ccc2nc(-c3ccc(NC(=O)c4ccccc4Br)cc3)[nH]c2c1 | inconclusive: 8.91 µM [inhibitor, full curve, poor fit] | – |
| Cc1nn(-c2ccccc2)c(C)c1C(=O)OCC(=O)NC(=O)NC1CCCC1 | inconclusive: 28.2 µM [inhibitor, partial curve] | – |
| O=C(c1ccc2c(c1)OCO2)N1CCCC(c2ccccc2)C1 (centres undefined) | inconclusive: 35.5 µM [inhibitor, partial curve] | – |
| COc1cccc(OCCCOc2ccc([N+](=O)[O-])cc2Cl)c1 | inconclusive: 31.6 µM [inhibitor, partial curve] | – |
| CCC(CC)COC(=O)C1=C(C)NC(=O)NC1c1ccc(OC)cc1 (centres undefined) | inconclusive: 35.5 µM [inhibitor, single point] | – |
| COC(=O)Nc1nnc(-c2ccccc2Cl)s1 | inconclusive: 56.2 µM [inhibitor, single point] | – |
| CS(=O)(=O)c1nc(-c2ccc(Br)cc2)cc(-c2ccccc2)c1C#N | inconclusive: 39.8 µM [inhibitor, partial curve, poor fit] | – |
| CCOC(=O)c1cc(CC)sc1NC(=O)C1CC(=O)NN1Cc1ccccc1 (centres undefined) | inconclusive: 31.6 µM [inhibitor, partial curve] | – |
| Cc1ccc(NC(=O)CS(=O)CC(=O)Nc2ccc(N3CCOCC3)cc2)cc1Cl (centres undefined) | inconclusive: 3.55 µM [inhibitor, full curve] | – |
| CCCCc1ccc(NC(=O)OC)cc1 | inconclusive: 22.4 µM [inhibitor, partial curve] | – |
| O=S(=O)(c1ccccc1)n1ccc2ccccc21 | inconclusive: 17.8 µM [inhibitor, partial curve] | – |
| COC1=C(Nc2ccc(O)cc2)C(=O)c2ccccc2C1=O | – | inactive: 6.66% |
| COc1cc(NC(=O)CC(C)n2nc(C)cc2C)cc(OC)c1 (centres undefined) | – | inactive: 1.9% |
| Cc1sc(-n2c(C)cc(/C=C3\SC(=S)NC3=O)c2C)c(C#N)c1C | inconclusive: 25.1 µM [inhibitor, partial curve] | – |
| O=c1cc(-c2ccccc2)[nH]c2[nH]n(-c3ccccc3)c(=O)c12 | inconclusive: 15.8 µM [inhibitor, partial curve] | – |
